The values below come from paper PMC4049815.

Chains of the proteins cited; added tags and fusions are not shown.
UniProt P43355: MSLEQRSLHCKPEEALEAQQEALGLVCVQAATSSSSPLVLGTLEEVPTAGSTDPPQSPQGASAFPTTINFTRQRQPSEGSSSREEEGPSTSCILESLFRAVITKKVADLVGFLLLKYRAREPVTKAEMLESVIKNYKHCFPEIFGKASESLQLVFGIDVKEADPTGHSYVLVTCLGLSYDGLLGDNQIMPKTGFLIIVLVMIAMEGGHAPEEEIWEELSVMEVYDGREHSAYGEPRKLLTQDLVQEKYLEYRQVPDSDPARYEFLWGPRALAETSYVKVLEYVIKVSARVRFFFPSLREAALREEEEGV
UniProt O88907: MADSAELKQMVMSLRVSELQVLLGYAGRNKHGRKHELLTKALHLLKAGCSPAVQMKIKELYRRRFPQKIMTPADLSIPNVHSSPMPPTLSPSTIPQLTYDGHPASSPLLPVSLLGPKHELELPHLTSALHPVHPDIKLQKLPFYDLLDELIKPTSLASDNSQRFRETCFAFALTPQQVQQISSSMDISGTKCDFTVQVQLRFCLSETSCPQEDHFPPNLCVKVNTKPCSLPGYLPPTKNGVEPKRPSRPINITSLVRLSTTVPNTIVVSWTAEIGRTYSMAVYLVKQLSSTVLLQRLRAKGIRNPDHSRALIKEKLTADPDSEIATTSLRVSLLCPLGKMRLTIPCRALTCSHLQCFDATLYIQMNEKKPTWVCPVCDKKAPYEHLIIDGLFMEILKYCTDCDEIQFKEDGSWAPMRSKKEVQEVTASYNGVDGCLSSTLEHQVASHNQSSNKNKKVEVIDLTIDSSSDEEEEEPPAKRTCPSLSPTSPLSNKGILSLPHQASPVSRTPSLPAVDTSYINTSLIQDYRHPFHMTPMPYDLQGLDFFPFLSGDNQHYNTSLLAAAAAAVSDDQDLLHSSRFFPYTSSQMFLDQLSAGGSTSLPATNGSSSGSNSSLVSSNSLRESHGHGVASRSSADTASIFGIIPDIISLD

No constants are given. Whether binding was seen depends on the method and setting. Binding seen in cells or lysates may run through a third protein. Some entries that bind do so weakly or less than the wild type. Tags and fused reporters may be left off the sequences shown.

Experiment in all cases: co-IP; HEK293A cells co-transfected with FLAG-tagged MAGE proteins and Myc-tagged E3 ligases; lysates (10 mM Tris-HCl pH 8.0, 150 mM NaCl, 1 mM EDTA, 1% IGEPAL CA-630, 10% glycerol) precipitated with anti-FLAG antibody at 4°C for 2 hrs, blotted with anti-Myc
Experiment [1] deals with T1, FLAG-tagged MAGEL2 (mouse) (UniProt Q9QZ04).
T1 sequence: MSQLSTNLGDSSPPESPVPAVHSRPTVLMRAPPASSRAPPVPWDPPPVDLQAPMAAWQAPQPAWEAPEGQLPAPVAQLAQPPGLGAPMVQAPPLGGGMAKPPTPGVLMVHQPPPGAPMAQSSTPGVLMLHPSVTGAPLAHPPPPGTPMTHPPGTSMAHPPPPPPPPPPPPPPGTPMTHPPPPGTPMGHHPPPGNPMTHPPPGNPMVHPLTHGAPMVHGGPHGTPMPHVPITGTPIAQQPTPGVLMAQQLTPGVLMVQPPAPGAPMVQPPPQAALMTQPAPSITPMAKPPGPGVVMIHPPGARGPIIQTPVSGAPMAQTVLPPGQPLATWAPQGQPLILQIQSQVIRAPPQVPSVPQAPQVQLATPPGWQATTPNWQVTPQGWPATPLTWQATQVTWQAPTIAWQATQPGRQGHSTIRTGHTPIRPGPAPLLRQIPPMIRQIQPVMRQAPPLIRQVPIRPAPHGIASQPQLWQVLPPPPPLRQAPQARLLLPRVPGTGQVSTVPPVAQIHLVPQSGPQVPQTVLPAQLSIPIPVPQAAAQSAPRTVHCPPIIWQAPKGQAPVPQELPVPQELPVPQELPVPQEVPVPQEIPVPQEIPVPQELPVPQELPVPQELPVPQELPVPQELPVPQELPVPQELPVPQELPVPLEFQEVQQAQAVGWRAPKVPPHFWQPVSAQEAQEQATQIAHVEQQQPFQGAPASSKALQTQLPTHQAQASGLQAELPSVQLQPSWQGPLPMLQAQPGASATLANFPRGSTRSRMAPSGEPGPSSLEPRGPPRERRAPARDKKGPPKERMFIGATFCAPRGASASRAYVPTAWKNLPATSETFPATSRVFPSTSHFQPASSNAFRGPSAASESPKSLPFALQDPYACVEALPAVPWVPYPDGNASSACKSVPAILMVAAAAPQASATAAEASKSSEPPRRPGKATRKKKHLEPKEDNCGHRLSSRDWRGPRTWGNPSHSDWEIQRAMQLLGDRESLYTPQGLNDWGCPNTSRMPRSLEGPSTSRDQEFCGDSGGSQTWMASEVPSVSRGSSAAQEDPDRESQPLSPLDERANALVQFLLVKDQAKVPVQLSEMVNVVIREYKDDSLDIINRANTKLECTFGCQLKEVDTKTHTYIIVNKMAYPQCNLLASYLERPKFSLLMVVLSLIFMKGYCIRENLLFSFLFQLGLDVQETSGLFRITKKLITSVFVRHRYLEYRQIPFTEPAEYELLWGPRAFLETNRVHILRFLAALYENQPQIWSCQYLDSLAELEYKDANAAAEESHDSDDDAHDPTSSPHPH

Experiment [2] has as its target FLAG-tagged MAGEA1 (human) (UniProt P43355).
In experiment [3] the target is T2, FLAG-tagged MAGEF1 (human) (UniProt Q9HAY2).
T2 sequence: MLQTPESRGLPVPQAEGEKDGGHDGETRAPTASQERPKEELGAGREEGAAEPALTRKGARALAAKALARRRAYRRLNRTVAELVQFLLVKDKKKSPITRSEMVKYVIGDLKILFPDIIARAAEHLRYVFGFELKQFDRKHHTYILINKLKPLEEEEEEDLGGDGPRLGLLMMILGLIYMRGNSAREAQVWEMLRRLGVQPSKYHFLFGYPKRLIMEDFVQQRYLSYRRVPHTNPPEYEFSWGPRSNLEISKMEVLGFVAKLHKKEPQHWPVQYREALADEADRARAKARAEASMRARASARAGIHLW

For experiment [4], the target named is T3, FLAG-tagged necdin-like 2 (mouse) (UniProt Q9CPR8).
T3 sequence: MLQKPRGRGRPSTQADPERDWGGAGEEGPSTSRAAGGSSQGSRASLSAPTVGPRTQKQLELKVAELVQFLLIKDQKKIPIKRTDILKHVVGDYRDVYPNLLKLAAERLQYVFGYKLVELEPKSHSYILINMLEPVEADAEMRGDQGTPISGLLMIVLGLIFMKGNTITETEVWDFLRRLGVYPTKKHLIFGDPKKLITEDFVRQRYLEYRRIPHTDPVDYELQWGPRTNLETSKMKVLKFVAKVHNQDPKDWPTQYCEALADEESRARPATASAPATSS

With “Myc-tagged PIAS1 (full-length) (from UniProt O88907 1-651) (enzyme)”, the binding result is listed as “binds” in experiment [1], “binds” in experiment [2], “binds” in experiment [3] and “no binding” in experiment [4].

B1: Myc-tagged Nsmce2 (enzyme, UniProt Q91VT1-1 1-247)
chain: MPGRSSTSSGSTRYISFSGIESALSSLKNFQSCISSGMDTVSSVALDLVETQTEVSSEYSMDKAMVEFAKMDRELSHYVKAVQSTINHVKEERPEKVPDLKLLVEKKFLALQDKNSDADFKENEKFVQFKQQLRELKKQYGIHADRENDLTEGVDEDMIVTQSQTNFICPITQLEMKKPVKNKMCGHTYEEEAIVRMIESKHKRKKKACCPKIGCSHTDMRMSDLIPDEALRRAIESHNKKKKRHSE
Regarding B1, the binding result in experiment [1] is on record as “no binding”; in experiment [2], “binds”; in experiment [3], “no binding”; in experiment [4], “no binding”.

B2: Myc-tagged Cbx4 (enzyme, UniProt O55187-1 1-551)
chain: MELPAVGEHVFAVESIEKKRIRKGRVEYLVKWRGWSPKYNTWEPEENILDPRLLIAFQNRERQEQLMGYRKRGPKPKPLVVQVPTFARRSNVLTGLQDSSADNRAKLELGTQGKGQGHQYELNSKKHHQYQPHSKERSGKPPPPGKSGKYYYQLNSKKHHPYQPDPKMYDLQYQGGHKEAPSPTCPDLGTKSHPPDKWAHGAAAKGYLGAVKPLGGGAGAPGKGSEKGPPNGMTPAPKEAVTGNGIGGKMKIVKNKNKNGRIVIVMSKYMENGMQAVKIKSGEAAEGEARSPSHKKRAAEERHPQGDRTFKKAAGASEEKKAEVPCKRREEEALVSGDAQPQDLGSRKLSPTKEAFGEQPLQLTTKPDLLAWDPARSSHPPAHHHHHHHHHHHHHTVGLNLSHARKRCLSETHGEREPCKKRLTARSISTPTCLGGSPVSEHPANVSPTAASLPQPEVILLDSDLDEPIDLRCVKMRSDAGEPPSTLQVKPEAPAVAAVVAPAPASEKPPAEAQEEPVEPLSEFKPFFGNIIITDVTANCLTVTFKEYVTV
In the case of B2, the binding result in experiment [1] is on record as “no binding”; in experiment [2] it was “binds”; in experiment [3], “no binding”; in experiment [4], “no binding”.

B3: Myc-tagged Nsmce1 (enzyme, UniProt Q9D720 1-266)
chain: MQGSTRRAGAMTDVHRRFLQLLMTHGVLEEWEVRRLQNHCYQVHDRNATVDKLEDFINNINSVLESLYIEIKKGVTEDDGRPIYALVNLATTSVSKMATDFAENELDLFRKALELIVDSETGFASSTNILNLVDQLKGKKMRKKEAEQVLQKFVQSKWLIEKEGEFTLHGRAILEMEQFIRESYPDSVKMCNICHGLLIQGQSCETCGIRMHLPCVAKYFQSIPEPHCPHCNDYWPHDIPEVYNPEKEREAGISKSSRKSLRTRQH
As for B3, the binding result is “no binding” in experiment [1], “binds” in experiment [2], “binds” in experiment [3] and “binds” in experiment [4].
